From PubChem BioAssay AID995 (National Center for Advancing Translational Sciences (NCATS), 2007)
Values joined by “and” are separate entries in the source; they are usually repeats but may differ in a detail not shown here. Equal values may be shown once. Hit rate of the full screen: of about 72,000 compounds, about 710 (0.99%) were called active. The inconclusive results got no clear call from the source; some entries with a clear call stand among them for comparison. Calls follow the shape of the dose curve; as a rule, active = well fitted inhibition curve with a large enough effect; inconclusive = small, poorly fitted or top-dose-only effect; inactive = no such curve, though single readings can be large or run the other way. Potencies of inconclusive entries are left out as doubtful fits.

Assay: qHTS Assay for Inhibitors of the ERK Signaling Pathway using a Homogeneous Screening Assay; also: nearly all actives have a fitted effect of over 55% in size
Details: HEK293-V1b, vasopressin-stimulated pERK AlphaScreen; activity, negative = inhibition: at 57.5 µM (top of the series) unless noted
Outline: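 HEK293 cells stably expressing V1b receptor, seeded overnight in 1% FBS, were treated with compounds for 30 min at 37C, then stimulated 5 min with 25 nM vasopressin; phospho-ERK read by AlphaScreen SureFire after lysis.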
% is scaled to controls: 0 for no effect and ±100 for the full control effect; potency is read from the fitted curve at half-maximal effect; tags tell the direction and shape of the fitted curve.

| Structure (SMILES) | Potency | activity, negative = inhibition |
| --- | --- | --- |
| O=C(Nc1ccc(N2CCOCC2)cc1)c1ccc(S(=O)(=O)N2CCCCC2)cc1 | inconclusive [inhibitor, full curve, poor fit] | – |
| COc1ccc(OC)c(NS(=O)(=O)Cc2ccccc2)c1 | inconclusive [inhibitor, full curve] | – |
| CN1CCN(c2nc(-c3cccs3)cc(C(F)(F)F)n2)CC1 | inconclusive [inhibitor, partial curve] | – |
| CCn1c(SCC(=O)NCCOC)nc2sc(C)c(C)c2c1=O | inconclusive [inhibitor, single point] | – |
| CN(c1ccccc1C(=O)Nc1ccccc1C(=O)NCc1ccco1)S(C)(=O)=O | inactive | – |
| Nc1nc(SCC(=O)N2CCc3ccccc32)[nH]c(=O)c1-c1ccccc1 | inconclusive [inhibitor, partial curve] | – |
| N#C/C(=C(\O)C(=O)O)c1ccc(-c2cccc3ccccc23)cc1 | – | inactive: 2.59% [at 11.5 µM] |
| CC(C)Cc1ccc(C#N)c(SCC(N)=O)n1 | inconclusive [inhibitor, partial curve] | – |
| CC(C)(C)n1nnnc1CN1C2CCC1CC(NC(=O)Nc1ccccc1)C2 (configuration not stated) | inconclusive [inhibitor, partial curve] | – |
| COc1cccc(C(=O)Nc2ccc(N(C)C)cc2)c1OC | inconclusive [inhibitor, partial curve] | – |
| N[C@H](C(=O)N[C@@H]1C(=O)N2C(C(=O)O)=C(Cl)CS[C@@H]12)c1ccccc1 | inactive | – |
| Cc1ccc(CNC(=O)c2cn(C3CCCC3)c(=O)c3c2c2ccccc2n3C)o1 | inconclusive [inhibitor, partial curve] | – |
| Cc1ccc(C)c(Cn2c(=O)c3c(nc4n3CCN4Cc3ccco3)n(C)c2=O)c1 | inconclusive [inhibitor, partial curve, poor fit] | – |
| Cc1cc(C)nc(N2C(=O)CC(C(=O)O)NC2=NCCc2c[nH]c3ccccc23)n1 (configuration not stated) | inconclusive [inhibitor, full curve, poor fit] | – |
| COCCn1nnnc1C(c1ccc(OC)cc1OC)N1CCN(c2ccccc2F)CC1 (configuration not stated) | inactive | – |
| CN(C)c1ccc(C(=C2C=CC(=[N+](C)C)C=C2)c2ccc(N(C)C)cc2)cc1 | active: 2 µM and active: 10 µM | – |
| CCNc1ncc2nc(C)c(=O)n(-c3ccc(OC)cc3)c2n1 | inconclusive [inhibitor, partial curve] | – |
| Cc1ccc(C)c(NC(=O)NCc2ccc(Cl)cc2)c1 | – | inactive: -33.1% [at 11.5 µM] |
| Cn1c(=O)[nH]c(=O)c2c1nc(Br)n2CCCCSc1nc2ccccc2o1 | active: 31.6 µM | – |
| Cc1csc(NC(=O)CSc2ncnc3c2cnn3-c2ccccc2Cl)n1 | inconclusive [inhibitor, single point] | – |
| CCCCn1c(NC(=O)c2ccccc2Cl)c(C#N)c2nc3ccccc3nc21 | inactive | – |

| Structure (SMILES) | Potency | activity, negative = inhibition |
| --- | --- | --- |
| CC(C)Cc1nc2oc3c(NCc4cccnc4)ncnc3c2c2c1CCC2 | inactive | – |
| O=C(Nc1nc2c(s1)CCCC2)c1ccc(Br)o1 | inconclusive [inhibitor, single point] | – |
| COc1ccccc1CN(Cc1nc2ccccc2c(=O)[nH]1)C(=O)Nc1ccccc1 | inconclusive [inhibitor, partial curve] | – |
| CO[C@H]1COC(=O)C/C=C\[C@@H](C)COC(=O)[C@@H](OCc2ccccc2)/C=C\[C@@H]1C | – | inactive: 9.49% [at 11.5 µM] |
| CCOC(=O)c1cn(CC(=O)Nc2ccc(CC)cc2)nn1 | inconclusive [inhibitor, partial curve] | – |
| CN(Cc1ccco1)c1ncnc2ccc(-c3ccccc3C(F)(F)F)cc12 | inconclusive [inhibitor, partial curve] | – |
| Cc1nn(-c2nc3ccccc3s2)c(C)c1Oc1ccccc1O | inconclusive [inhibitor, single point] | – |
| CC(C)c1ccc2c(c1)c(SC(C)(C)C)c(CC(C)(C)C(=O)O)n2Cc1ccc(Cl)cc1 | inconclusive [inhibitor, partial curve] | – |
| CCOC(=O)C1CCCN(c2ncnc3c2[nH]c2cccc(OC)c23)C1 (configuration not stated) | inconclusive [inhibitor, partial curve] | – |
| CC1CCCCN1C(=O)CSc1nc2ccsc2c(=O)n1Cc1ccccn1 (configuration not stated) | active: 25.1 µM | – |
| O=C(NC1CCN(Cc2ccccc2)CC1)c1ccc(I)cc1 | inconclusive [inhibitor, partial curve, poor fit] | – |
| COc1ccc(S(=O)(=O)Nc2cc(OC)c(NC(=O)c3ccco3)cc2OC)cc1 | inconclusive [inhibitor, single point] | – |
| CN1C(=O)C(O)(CC(=O)c2cccc(-n3cccc3)c2)c2ccccc21 (configuration not stated) | inconclusive [inhibitor, partial curve] | – |
| Cc1ccccc1OCC(=O)Nc1ccccc1N1CCCCC1 | inactive | – |
| O=S(=O)(c1cccc(-c2nn3c(-c4ccncc4)nnc3s2)c1)N1CCOCC1 | inconclusive [inhibitor, single point] | – |
| CCOc1ccc(-c2cc(C(=O)N3CCN(c4ccccn4)CC3)c3ccccc3n2)cc1 | inconclusive [inhibitor, full curve, poor fit] | – |
| CCOC(=O)Nc1sc2c(c1C#N)CCC(C)C2 (configuration not stated) | inconclusive [inhibitor, partial curve] | – |
| CSc1nc(N)c2ncn([C@@H]3O[C@@H](COP(=O)(O)OP(=O)(O)O)[C@@H](O)[C@H]3O)c2n1 | inactive | – |
| COc1cccc(NC(=O)N2CCN(c3cccc(C)c3C)CC2)c1 | inconclusive [inhibitor, partial curve] | – |
| Cc1nn(-c2ccccc2)c2sc(C(=O)c3c(N)n(C)c(=O)n(C)c3=O)cc12 | inconclusive [inhibitor, single point] | – |
| CCN1CCN(C(=O)c2nn(-c3ccc(OC)cc3)c(=O)c3c2c2ccccc2n3C)CC1 | inactive | – |
